# PMC12820563
# The list shows a part of the results. The list includes weakly bound sequences.
# Molecular target: T1, MBP-FoxP3dN (UniProt Q99JB6)
# T1 sequence: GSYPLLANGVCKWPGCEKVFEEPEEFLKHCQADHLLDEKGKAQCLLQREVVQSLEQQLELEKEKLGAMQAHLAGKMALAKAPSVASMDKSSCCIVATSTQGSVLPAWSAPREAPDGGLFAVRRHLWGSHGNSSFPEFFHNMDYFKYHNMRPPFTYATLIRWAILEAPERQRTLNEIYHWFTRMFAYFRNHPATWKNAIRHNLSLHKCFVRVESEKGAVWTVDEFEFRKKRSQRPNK
# Assay: PD-seq (MBP pull-down with sequencing)
# Settings: 20 mM Tris-HCl pH 7.5, 100 mM NaCl, 1.5 mM MgCl2, 0.4 uM protein, 0.1 uM dsDNA library, 30 min, room temperature, amylose pull-down; high values mean tight binding; double strand, one strand shown
row,Sequence,binding signal (RPM ratio (pull-down/input))
1,GATGATTGTTCTCCCAGCTGATGAATTTAGTCCGTCGAGTAAACAAATTTTCCTAATCTTTCTGTTCAAGCGCCATCTAC,0.396
2,GATGATTGTTCTCCCAGCTGATGAATTCGACTCATCGAGTAAACAAATTTTCCTAATCTTTCTGTTCAAGCGCCATCTAC,0.569
3,GATGATTGTTCTCCCAGCTGATGAATTCCACGGGTCGAGTAAACAAATTTTCCTAATCTTTCTGTTCAAGCGCCATCTAC,0.2
4,GATGATTGTTCTCCCAGCTGATGAATTTAAAGAGTCGAGTAAACAAATTTTCCTAATCTTTCTGTTCAAGCGCCATCTAC,0.238
5,GATGATTGTTCTCCCAGCTGATGAATTAAACGCTTCGAGTAAACAAATTTTCCTAATCTTTCTGTTCAAGCGCCATCTAC,0.461
6,GATGATTGTTCTCCCAGCTGATGAATTCGGTTTATCGAGTAAACAAATTTTCCTAATCTTTCTGTTCAAGCGCCATCTAC,2.84
7,GATGATTGTTCTCCCAGCTGATGAATTAAGCATTTCGAGTAAACAAATTTTCCTAATCTTTCTGTTCAAGCGCCATCTAC,6.1
8,GATGATTGTTCTCCCAGCTGATGAATTCATGGCCTCGAGTAAACAAATTTTCCTAATCTTTCTGTTCAAGCGCCATCTAC,0.567
9,GATGATTGTTCTCCCAGCTGATGAATTGCAGTTATCGAGTAAACAAATTTTCCTAATCTTTCTGTTCAAGCGCCATCTAC,1.39
10,GATGATTGTTCTCCCAGCTGATGAATTATCGGATTCGAGTAAACAAATTTTCCTAATCTTTCTGTTCAAGCGCCATCTAC,0.299
11,GATGATTGTTCTCCCAGCTGATGAATTTGCTATTTCGAGTAAACAAATTTTCCTAATCTTTCTGTTCAAGCGCCATCTAC,5.54
12,GATGATTGTTCTCCCAGCTGATGAATTAGCAGCCTCGAGTAAACAAATTTTCCTAATCTTTCTGTTCAAGCGCCATCTAC,0.592
13,GATGATTGTTCTCCCAGCTGATGAATTCACGTAATCGAGTAAACAAATTTTCCTAATCTTTCTGTTCAAGCGCCATCTAC,0.501
14,GATGATTGTTCTCCCAGCTGATGAATTGTGGGCATCGAGTAAACAAATTTTCCTAATCTTTCTGTTCAAGCGCCATCTAC,1.1
15,GATGATTGTTCTCCCAGCTGATGAATTTGGATCATCGAGTAAACAAATTTTCCTAATCTTTCTGTTCAAGCGCCATCTAC,0.541
16,GATGATTGTTCTCCCAGCTGATGAATTAAAGACGTCGAGTAAACAAATTTTCCTAATCTTTCTGTTCAAGCGCCATCTAC,0.263
17,GATGATTGTTCTCCCAGCTGATGAATTGGAGGCATCGAGTAAACAAATTTTCCTAATCTTTCTGTTCAAGCGCCATCTAC,1.07
18,GATGATTGTTCTCCCAGCTGATGAATTGGTGGGTTCGAGTAAACAAATTTTCCTAATCTTTCTGTTCAAGCGCCATCTAC,0.773
19,GATGATTGTTCTCCCAGCTGATGAATTATACTAATCGAGTAAACAAATTTTCCTAATCTTTCTGTTCAAGCGCCATCTAC,0.484
20,GATGATTGTTCTCCCAGCTGATGAATTCCCACCCTCGAGTAAACAAATTTTCCTAATCTTTCTGTTCAAGCGCCATCTAC,0.254
21,GATGATTGTTCTCCCAGCTGATGAATTGGCACCGTCGAGTAAACAAATTTTCCTAATCTTTCTGTTCAAGCGCCATCTAC,0.334

row,Sequence,binding signal (RPM ratio (pull-down/input))
1,GATGATTGTTCTCCCAGCTGATGAATTGGTCACTTCGAGTAAACAAATTTTCCTAATCTTTCTGTTCAAGCGCCATCTAC,0.738
2,GATGATTGTTCTCCCAGCTGATGAATTGCCGGCCTCGAGTAAACAAATTTTCCTAATCTTTCTGTTCAAGCGCCATCTAC,0.572
3,GATGATTGTTCTCCCAGCTGATGAATTGCGCCTGTCGAGTAAACAAATTTTCCTAATCTTTCTGTTCAAGCGCCATCTAC,6.14
4,GATGATTGTTCTCCCAGCTGATGAATTCAATGAATCGAGTAAACAAATTTTCCTAATCTTTCTGTTCAAGCGCCATCTAC,0.235
5,GATGATTGTTCTCCCAGCTGATGAATTCCAGTGTTCGAGTAAACAAATTTTCCTAATCTTTCTGTTCAAGCGCCATCTAC,0.673
6,GATGATTGTTCTCCCAGCTGATGAATTTGTCTGATCGAGTAAACAAATTTTCCTAATCTTTCTGTTCAAGCGCCATCTAC,1.23
7,GATGATTGTTCTCCCAGCTGATGAATTTCCCGATTCGAGTAAACAAATTTTCCTAATCTTTCTGTTCAAGCGCCATCTAC,0.191
8,GATGATTGTTCTCCCAGCTGATGAATTTATAAAGTCGAGTAAACAAATTTTCCTAATCTTTCTGTTCAAGCGCCATCTAC,0.295
9,GATGATTGTTCTCCCAGCTGATGAATTGGCATTCTCGAGTAAACAAATTTTCCTAATCTTTCTGTTCAAGCGCCATCTAC,3.49
10,GATGATTGTTCTCCCAGCTGATGAATTACCACACTCGAGTAAACAAATTTTCCTAATCTTTCTGTTCAAGCGCCATCTAC,0.478
11,GATGATTGTTCTCCCAGCTGATGAATTAACGCTCTCGAGTAAACAAATTTTCCTAATCTTTCTGTTCAAGCGCCATCTAC,0.605
12,GATGATTGTTCTCCCAGCTGATGAATTACGGCCTTCGAGTAAACAAATTTTCCTAATCTTTCTGTTCAAGCGCCATCTAC,1.8
13,GATGATTGTTCTCCCAGCTGATGAATTCTCTTCGTCGAGTAAACAAATTTTCCTAATCTTTCTGTTCAAGCGCCATCTAC,0.288
14,GATGATTGTTCTCCCAGCTGATGAATTGCGACGGTCGAGTAAACAAATTTTCCTAATCTTTCTGTTCAAGCGCCATCTAC,0.529
15,GATGATTGTTCTCCCAGCTGATGAATTAGGGAGGTCGAGTAAACAAATTTTCCTAATCTTTCTGTTCAAGCGCCATCTAC,0.259
16,GATGATTGTTCTCCCAGCTGATGAATTGCACTTCTCGAGTAAACAAATTTTCCTAATCTTTCTGTTCAAGCGCCATCTAC,1.28
17,GATGATTGTTCTCCCAGCTGATGAATTCAATTTCTCGAGTAAACAAATTTTCCTAATCTTTCTGTTCAAGCGCCATCTAC,1.07
18,GATGATTGTTCTCCCAGCTGATGAATTTGTCCTCTCGAGTAAACAAATTTTCCTAATCTTTCTGTTCAAGCGCCATCTAC,3.28
19,GATGATTGTTCTCCCAGCTGATGAATTGTTGGAGTCGAGTAAACAAATTTTCCTAATCTTTCTGTTCAAGCGCCATCTAC,0.449
20,GATGATTGTTCTCCCAGCTGATGAATTTGCACCATCGAGTAAACAAATTTTCCTAATCTTTCTGTTCAAGCGCCATCTAC,0.951
21,GATGATTGTTCTCCCAGCTGATGAATTCATTAGCTCGAGTAAACAAATTTTCCTAATCTTTCTGTTCAAGCGCCATCTAC,0.706

row,Sequence,binding signal (RPM ratio (pull-down/input))
1,GATGATTGTTCTCCCAGCTGATGAATTAACAGGGTCGAGTAAACAAATTTTCCTAATCTTTCTGTTCAAGCGCCATCTAC,0.25
2,GATGATTGTTCTCCCAGCTGATGAATTGCAGGTATCGAGTAAACAAATTTTCCTAATCTTTCTGTTCAAGCGCCATCTAC,1.04
3,GATGATTGTTCTCCCAGCTGATGAATTTGCTCATTCGAGTAAACAAATTTTCCTAATCTTTCTGTTCAAGCGCCATCTAC,0.572
4,GATGATTGTTCTCCCAGCTGATGAATTCGAACCATCGAGTAAACAAATTTTCCTAATCTTTCTGTTCAAGCGCCATCTAC,0.313
5,GATGATTGTTCTCCCAGCTGATGAATTGGTACTTTCGAGTAAACAAATTTTCCTAATCTTTCTGTTCAAGCGCCATCTAC,0.472
6,GATGATTGTTCTCCCAGCTGATGAATTGTTGATTTCGAGTAAACAAATTTTCCTAATCTTTCTGTTCAAGCGCCATCTAC,5.09
7,GATGATTGTTCTCCCAGCTGATGAATTGTTGTCATCGAGTAAACAAATTTTCCTAATCTTTCTGTTCAAGCGCCATCTAC,5.33
8,GATGATTGTTCTCCCAGCTGATGAATTGTATAAGTCGAGTAAACAAATTTTCCTAATCTTTCTGTTCAAGCGCCATCTAC,0.686
9,GATGATTGTTCTCCCAGCTGATGAATTGCACATATCGAGTAAACAAATTTTCCTAATCTTTCTGTTCAAGCGCCATCTAC,1.19
10,GATGATTGTTCTCCCAGCTGATGAATTAGAGCGGTCGAGTAAACAAATTTTCCTAATCTTTCTGTTCAAGCGCCATCTAC,0.238
11,GATGATTGTTCTCCCAGCTGATGAATTCGCTCTATCGAGTAAACAAATTTTCCTAATCTTTCTGTTCAAGCGCCATCTAC,0.357
12,GATGATTGTTCTCCCAGCTGATGAATTTCGCAATTCGAGTAAACAAATTTTCCTAATCTTTCTGTTCAAGCGCCATCTAC,4.55
13,GATGATTGTTCTCCCAGCTGATGAATTGTCCGGATCGAGTAAACAAATTTTCCTAATCTTTCTGTTCAAGCGCCATCTAC,0.197
14,GATGATTGTTCTCCCAGCTGATGAATTAACGAGATCGAGTAAACAAATTTTCCTAATCTTTCTGTTCAAGCGCCATCTAC,0.238
15,GATGATTGTTCTCCCAGCTGATGAATTCGGGTGTTCGAGTAAACAAATTTTCCTAATCTTTCTGTTCAAGCGCCATCTAC,0.701
16,GATGATTGTTCTCCCAGCTGATGAATTTTCGAGTTCGAGTAAACAAATTTTCCTAATCTTTCTGTTCAAGCGCCATCTAC,0.414
17,GATGATTGTTCTCCCAGCTGATGAATTTCCGGTGTCGAGTAAACAAATTTTCCTAATCTTTCTGTTCAAGCGCCATCTAC,0.41
18,GATGATTGTTCTCCCAGCTGATGAATTTGCTGAATCGAGTAAACAAATTTTCCTAATCTTTCTGTTCAAGCGCCATCTAC,0.458
19,GATGATTGTTCTCCCAGCTGATGAATTGTCGTCCTCGAGTAAACAAATTTTCCTAATCTTTCTGTTCAAGCGCCATCTAC,0.673
20,GATGATTGTTCTCCCAGCTGATGAATTGAGCCCCTCGAGTAAACAAATTTTCCTAATCTTTCTGTTCAAGCGCCATCTAC,0.983
21,GATGATTGTTCTCCCAGCTGATGAATTACGCCTGTCGAGTAAACAAATTTTCCTAATCTTTCTGTTCAAGCGCCATCTAC,5.4
